According to PubChem BioAssay AID485344 (National Center for Advancing Translational Sciences (NCATS), 2010):
Screen size: about 340,000 compounds; about 6,900 (2%) were called active. Rule as the data show it: active = inhibition above about 30%; inactive = below that, where a call was filed. This is a selection; strong and weak results do not stand in their true shares. The source gives no active or inactive call for entries shown without one.

The compounds below were run against D(2) dopamine receptor (Homo sapiens) (UniProt P14416) (assay: HTS Assay for Allosteric Antagonists of the Human D2 Dopamine Receptor: Primary Screen for Antagonists). Conditions: HEK293 TREx D2 cells, calcium flux, dopamine EC80; at 10 µM; stronger effect = higher value.
How it was run: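 Read-out: kinetic calcium fluorescence (1 cycle/s) in inducible HEK293 T-REx D2 cells after an EC80 dopamine addition that followed 180 s compound preincubation. Loss of the dopamine response indicates antagonism.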
Also: 0% is about no effect.

Chain of UniProt P14416 (P14416 whole entry, looked up): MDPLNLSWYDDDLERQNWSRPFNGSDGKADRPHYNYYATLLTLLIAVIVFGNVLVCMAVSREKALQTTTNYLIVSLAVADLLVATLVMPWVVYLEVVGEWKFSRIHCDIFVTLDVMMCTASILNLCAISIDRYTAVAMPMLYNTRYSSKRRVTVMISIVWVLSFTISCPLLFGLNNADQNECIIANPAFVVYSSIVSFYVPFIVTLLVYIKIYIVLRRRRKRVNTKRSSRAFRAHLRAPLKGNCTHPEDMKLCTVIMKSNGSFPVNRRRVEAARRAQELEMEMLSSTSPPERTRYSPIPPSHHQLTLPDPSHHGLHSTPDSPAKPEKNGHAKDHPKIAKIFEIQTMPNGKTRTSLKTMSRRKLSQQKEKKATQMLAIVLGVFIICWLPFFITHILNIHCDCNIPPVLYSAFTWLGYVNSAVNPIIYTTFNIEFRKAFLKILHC

| SMILES | inhibition |
| --- | --- |
| OCCCN1CCN(CCOc2ccccc2-c2ccccc2)CC1 | active: 66.6% |
| CCc1ccc(C2(O)CC(C(F)(F)F)=NN2C(=O)Cc2ccc([N+](=O)[O-])cc2)cc1 (stereo not given) | active: 32.8% |
| COc1cccc(CNC(=O)c2cc(-c3ccc(Cl)s3)nc3ccccc23)c1 | 19.5% |
| COc1ccc(NC(=O)c2nc(S(C)(=O)=O)ncc2N(Cc2ccc(C)cc2)Cc2ccco2)cc1Cl | 7.05% |
| COc1ccc(Cl)cc1NC(=O)c1cc(-c2ccc3c(c2)OCO3)on1 | 9.65% |
| CCCCc1cc(=O)oc2cc(C)c3c(C(C)(C)C)coc3c12 | -12.9% |
| COc1ccc(C)cc1NC(=O)N1CCN(S(=O)(=O)c2ccc3c(ccn3C)c2)CC1 | -6.19% |
| O=C(NCc1ccc(Cl)cc1)C1CCN(c2nn3cc(-c4ccc(F)cc4)nc3s2)CC1 | 3.05% |
| CCn1c2c(c(=O)n3ncc(C(=O)Nc4cc(Cl)ccc4OC)c13)CN(Cc1ccc(OC)cc1)CC2 | -1.31% |
| Cc1c(C(=O)OCCOc2ccccc2)[nH]c2c1C(=O)CC(c1ccc(C(C)(C)C)cc1)C2 (stereo not given) | 0.889% |
| CCCNC(=O)CCC(=O)N1Cc2cccc(OC)c2Oc2ncccc21 | 6.32% |
| CCOC(=O)C1CCN(C(=O)CCc2nc3ccccc3[nH]2)CC1 | active: 60.6% |
| CC1CN(C(=O)NCc2ccccc2)c2cc(Cl)ccc2O1 (stereo not given) | 8.28% |
| Cc1cccc(NC(=O)CSc2nc3ccc(NC(=O)COc4ccccc4C)cc3s2)c1 | 2.53% |
| Cc1ccc(NC(=O)CSc2nc(-c3ccco3)cc(C(F)(F)F)n2)c(C)c1 | -12.2% |
| COc1cccc2cc(C(=O)Nc3ccc(CC(=O)O)cc3)c(=O)oc12 | 20.6% |
| COc1ccc(CN2CCC(C(=O)c3ccc(Cl)cc3)CC2)cc1 | active: 35.3% |
| CCCCN1CC(c2nc3ccccc3n2CCCCOc2cc(C)cc(C)c2)CC1=O (stereo not given) | -3.37% |
| Cc1ccn2c(NC3CCCCC3)c(C)nc2c1 | active: 34.6% |
| CCOc1ccc(S(=O)(=O)N2Cc3ccccc3CC2C(=O)Nc2ccc(NC(C)=O)cc2)cc1 (stereo not given) | -9.16% |

| SMILES | inhibition |
| --- | --- |
| COc1ccc(-c2cc(C(=O)Nc3sc4c(c3C(N)=O)CCCC4)no2)cc1 | 14.2% |
| COCCCNC(=O)CN1C(=O)c2cccnc2Sc2ccccc21 | 2.26% |
| CC(=O)c1cccc(NC(=O)CN2C(=O)CCc3cc(S(=O)(=O)N4CCCCC4)ccc32)c1 | -12.5% |
| COc1ccccc1N1CCN(C(=O)c2cc(-c3ccc(C)c(F)c3)on2)CC1 | 13.6% |
| COc1cc(CNc2ccc3[nH]c(=O)[nH]c3c2)ccc1OCc1ccc(F)cc1Cl | 5.18% |
| COc1ccc(CN2CCc3c(c(=O)n4ncc(C(=O)N5CCN(c6ccccc6F)CC5)c4n3C)C2)cc1 | 13.4% |
| O=C(Cc1csc(Nc2nc(=S)[nH]c3ccccc23)n1)NCCCN1CCN(c2cccc(Cl)c2)CC1 | active: 69.4% |
| COC(=O)c1ccc2c(=O)n3nc(Nc4ccc(F)cc4F)sc3nc2c1 | -3.09% |
| COc1ccc(CNC(=O)c2ccc3c(O)c(S(=O)(=O)c4ccccc4)c(=O)[nH]c3c2)cc1 | 3.98% |
| CS(=O)(=O)N(Cc1ccccc1)c1ccc(C(=O)Nc2cccc(Cl)c2)cc1 | 4.36% |
| Cc1cccc(N2CCN(C(=O)c3nn(C)c4c3CS(=O)(=O)c3ccccc3-4)CC2)c1C | -9.26% |
| COc1ccc(Cn2ccc3nc(C)c(C(=O)N4CCN(c5cccc(OC)c5)CC4)cc3c2=O)cc1 | -14.6% |
| CCCCC1CCC(C(=O)N2CC(=O)Nc3ccc(C)cc3C2c2ccc(F)cc2)CC1 (stereo not given) | 1.6% |
| COc1ccc(NC(=O)c2c(NC(=O)C(F)(F)F)sc3c2CCCCC3)cc1 | -23.3% |
| CCN(C(=O)CCc1nc(-c2ccc(C)cc2)no1)c1cccc(C(F)(F)F)c1 | 4.32% |
| COc1ccccc1N1CCN(CCCCOc2ccc(C)cc2C)CC1 | active: 81.7% |
| Cc1ccc(CN2CCSc3ccc(C(=O)NC4CCN(Cc5ccccc5)CC4)cc32)cc1 | active: 73.9% |
| CCOC(=O)c1c(C)[nH]c(CCC(=O)Nc2ccccc2C(F)(F)F)c1C | -1.81% |
| O=C(CCS(=O)(=O)c1cc2c(cc1Cl)NC(=O)CO2)NCCc1ccccc1 | 8.5% |
| COc1ccc(C(=O)Nc2ccc(S(=O)(=O)Nc3cc(C)nc(C)n3)cc2)cc1 | 0.609% |

| SMILES | inhibition |
| --- | --- |
| CCCS(=O)(=O)N1CC(=O)N(c2cccc(F)c2)C(C)(C(=O)NC2CCCCCC2)C1 (stereo not given) | 1.08% |
| O=C(CSc1n[nH]c(-c2ccccc2Cl)n1)NCCc1ccccc1 | -7.43% |
| COc1ccc(N2CCN(C(=O)c3cccn3-c3nnc(N4CCCC4)s3)CC2)cc1 | 5.75% |
| CCc1nn(CCCC(=O)NCc2ccc(OC(C)C)cc2)c(=O)c2cc3occc3n12 | 4.98% |
| CCOc1cc(CNS(=O)(=O)c2ccc3c(c2)C(C)(C)C(=O)N3)cc(OCC)c1OCC | -12.3% |
| CC(NC(=O)Cn1ccc2cc(S(=O)(=O)N3CCCCCC3)ccc21)c1ccccc1 (stereo not given) | -2.13% |
| CCOC(=O)C1CCCN(c2nc3c(S(=O)(=O)c4ccc(CC)cc4)nnn3c3ccc(Cl)cc23)C1 (stereo not given) | 18% |
| COc1ccc(C)cc1NC(=O)Nc1nnc(N2CCCCC2)s1 | 13% |
| COc1ccc(Nc2ncnc3sc4c(c23)CCCC4)cc1 | -1.62% |
| O=C(NCc1ccccc1Cl)c1ccc(CS(=O)(=O)c2ccc(Br)cc2)o1 | -0.282% |
| CCOC(=O)C1CCN(C(=O)Cn2nc(CC)n3c(cc4sccc43)c2=O)CC1 | 9.45% |
| Cc1cc(C)c(NC(=O)Cn2c(=O)n(CCC(=O)N3CCc4ccccc4C3)c(=O)c3ccccc32)c(C)c1 | 19% |
| Clc1ccc(-n2ncc3c(NC4CCCC4)ncnc32)cc1 | 6.2% |
| Cc1ccc(Cn2c3ccccc3c3cnn(CC(=O)Nc4cc(Cl)ccc4C)c(=O)c32)cc1 | 4.64% |
| Cc1c(CNC2CCCCC2)c(C(=O)O)c(C)n1Cc1ccc(Cl)cc1 | -4.93% |
| COc1ccccc1N1CCN(Cc2cn[nH]c2-c2ccc(F)cc2)CC1 | active: 82.2% |
| Cc1nn2c(=O)cc(COC(=O)c3cccc(NC(=O)COc4ccccc4C)c3)nc2s1 | -3.64% |
| Cc1ccc(N2C(=O)CCSC23C(=O)N(Cc2ccccc2)c2ccccc23)cc1 (stereo not given) | 3.46% |
| CCN(CC)C(=O)c1ccc2c(c1)N(Cc1ccc(C(F)(F)F)cc1)C(=O)c1ccccc1S2 | 0.556% |
| CCC(=O)NCCc1nc2cc(NC(=O)c3cccc(Br)c3)ccc2n1C | 13.4% |
